Measured values: the supplement of paper PMC3334620
The full ranking holds about 33,000 sequences; the median of “E-score (-0.5 to 0.5)” is about -0.054, and the highest 2% start at about 0.39. The list shows a part of the results.

What follows are sequences tested against Ylr278c (UniProt Q05854) (assay: PBM E-score (8-mer binding enrichment) (E-score (-0.5 to 0.5)); higher = stronger / more preferred TF binding; most listed sequences are background and not binding sites). Settings: protein concentration: 200 nM; construct: GST-DNA-binding domain.
In short: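 Masliner-normalised scans of fluorescent anti-GST signal were the basis for scoring. That signal came from GST-tagged yeast transcription factors applied at about 100-200 nM to double-stranded universal all-10-mer Agilent arrays on fresh or once-stripped slides. Each ungapped eight-base word, pooled with its reverse complement, received an E-score from the Universal PBM Analysis Suite.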
For GACACAGA, the “PBM E-score” value was 0.0642.
For CAGCCTAA, the “PBM E-score” value was -0.285.
With AAGGGACT the “PBM E-score” value was -0.243.
For CTCCTCGA, the “PBM E-score” value was -0.189.
In the case of ACGGACAC, the “PBM E-score” value is reported as 0.194.
CAACACGG was tested, and the “PBM E-score” value was 0.108.
In the case of CTTCGCGC, the “PBM E-score” value is reported as 0.0777.
With CCAACTAC the “PBM E-score” value was -0.0123.
CCGCTCAG was tested, and the “PBM E-score” value was 0.0758.
With CCATCGAG the “PBM E-score” value was -0.0825.
TATTAATA was tested, and the “PBM E-score” value was -0.00867.
In the case of AAGTGGTA, the “PBM E-score” value is reported as -0.0771.
ATTTTTGA was tested, and the “PBM E-score” value was -0.0737.
For AGGGCTCG, the “PBM E-score” value was -0.111.
In the case of CCTCACCA, the “PBM E-score” value is reported as -0.0339.
With AAGAAATG the “PBM E-score” value was -0.012.
For ACCGAGGG, the “PBM E-score” value was -0.184.
With CCCGGGTC the “PBM E-score” value was 0.286.
For AGCGCGGC, the “PBM E-score” value was 0.083.
With CGGGTAAA the “PBM E-score” value was 0.156.
In the case of CTACTCTA, the “PBM E-score” value is reported as -0.188.
With CGATTAAA the “PBM E-score” value was 0.0584.
In the case of GATCTGAC, the “PBM E-score” value is reported as -0.0839.
ATTTGGTA was tested, and the “PBM E-score” value was -0.0616.
AGCGTTCC was tested, and the “PBM E-score” value was 0.0209.
GATTAATC was tested, and the “PBM E-score” value was 0.337.
With CTATTGAG the “PBM E-score” value was -0.213.
With CATCCTCG the “PBM E-score” value was 0.138.
For ATATTATG, the “PBM E-score” value was 0.0701.
With GTCGCTAA the “PBM E-score” value was -0.0503.
For ATATGCAA, the “PBM E-score” value was -0.0841.
CTGGTCCC was tested, and the “PBM E-score” value was -0.263.
CCAACGAG was tested, and the “PBM E-score” value was -0.167.
AACTATTA was tested, and the “PBM E-score” value was -0.0952.
With ACTTAATG the “PBM E-score” value was -0.0551.
AGGTACTG was tested, and the “PBM E-score” value was -0.188.
GGGACCAC was tested, and the “PBM E-score” value was 0.0293.
In the case of ATTAGACA, the “PBM E-score” value is reported as -0.251.
ACGGAGAT was tested, and the “PBM E-score” value was 0.465.
AAATTAAC was tested, and the “PBM E-score” value was 0.0288.
For AGCCGATG, the “PBM E-score” value was 0.209.
With TTTCGAAA the “PBM E-score” value was -0.185.
With CCTCGTTC the “PBM E-score” value was -0.00096.
With TATTACGA the “PBM E-score” value was -0.038.
ATATTGAT was tested, and the “PBM E-score” value was 0.00448.
For AATCCCAA, the “PBM E-score” value was -0.0453.
ATCAAACA was tested, and the “PBM E-score” value was -0.115.
For CACACCTA, the “PBM E-score” value was 0.0075.
CGGGGCCA was tested, and the “PBM E-score” value was 0.249.
For ACTGGCAT, the “PBM E-score” value was -0.256.
With CAATTATG the “PBM E-score” value was 0.0405.
For ACGCATAT, the “PBM E-score” value was -0.119.
For TGTAGACA, the “PBM E-score” value was -0.19.
CATGATAA was tested, and the “PBM E-score” value was -0.0695.
For CGGCTCAG, the “PBM E-score” value was 0.23.
With CTGTTCTA the “PBM E-score” value was -0.0866.
In the case of ACGCATAG, the “PBM E-score” value is reported as -0.0915.
With CTCGGAAC the “PBM E-score” value was 0.381.
In the case of ATCGTGTA, the “PBM E-score” value is reported as -0.107.
ACGCATCT was tested, and the “PBM E-score” value was -0.0343.
GCATGTCC was tested, and the “PBM E-score” value was 0.14.
CAGTCGCA was tested, and the “PBM E-score” value was -0.248.
ACCGAATC was tested, and the “PBM E-score” value was 0.159.
With CTGCCACC the “PBM E-score” value was -0.111.
In the case of ACAAGCGC, the “PBM E-score” value is reported as 0.114.
With ACAAGTGG the “PBM E-score” value was -0.203.
With CGATGAAC the “PBM E-score” value was 0.058.
In the case of CCTCGCGA, the “PBM E-score” value is reported as -0.0607.
With AGGCGGTC the “PBM E-score” value was -0.0519.
For ATCCGTAC, the “PBM E-score” value was 0.112.
In the case of ACATGCAA, the “PBM E-score” value is reported as -0.0561.
In the case of CTTAAACC, the “PBM E-score” value is reported as -0.135.
In the case of GACAATCA, the “PBM E-score” value is reported as -0.0295.
For CACGTGGC, the “PBM E-score” value was -0.274.
CCTGTTTA was tested, and the “PBM E-score” value was -0.023.
CGAGTAAG was tested, and the “PBM E-score” value was 0.133.
With GGACCACC the “PBM E-score” value was 0.0421.
GGCCCACA was tested, and the “PBM E-score” value was -0.0418.
In the case of CTTCAAAC, the “PBM E-score” value is reported as -0.0636.
In the case of AGCTAGTA, the “PBM E-score” value is reported as -0.114.
GCGATGAA was tested, and the “PBM E-score” value was 0.0129.
For AGTATTTA, the “PBM E-score” value was -0.134.
In the case of AGCTAGCT, the “PBM E-score” value is reported as -0.257.
For AACACGGT, the “PBM E-score” value was 0.0118.
With GAGGAGGC the “PBM E-score” value was 0.00186.
For CTGAAACA, the “PBM E-score” value was -0.112.
With ATGGTAGA the “PBM E-score” value was -0.227.
With CTTTCTTC the “PBM E-score” value was -0.133.
CGATGTAG was tested, and the “PBM E-score” value was -0.122.
AACAAATT was tested, and the “PBM E-score” value was -0.0211.
CTAACGGA was tested, and the “PBM E-score” value was 0.326.
GGAACATA was tested, and the “PBM E-score” value was 0.00436.
AGAAATAC was tested, and the “PBM E-score” value was 0.116.
In the case of AGGATACG, the “PBM E-score” value is reported as -0.244.
AGCATGGG was tested, and the “PBM E-score” value was -0.18.
GAATGAGA was tested, and the “PBM E-score” value was 0.0345.
In the case of AATGTGCA, the “PBM E-score” value is reported as -0.0845.
With TTGCGAAA the “PBM E-score” value was 0.167.
For AAGTTTCC, the “PBM E-score” value was 0.136.
For AAGCAAGC, the “PBM E-score” value was -0.0811.
In the case of GTAAATAC, the “PBM E-score” value is reported as 0.0134.
In the case of AGTGAGCG, the “PBM E-score” value is reported as -0.152.
In the case of GGAGTGCA, the “PBM E-score” value is reported as 0.196.
GAAAAGTA was tested, and the “PBM E-score” value was -0.0739.
AGAGCTAG was tested, and the “PBM E-score” value was -0.236.
In the case of CTAGAGGA, the “PBM E-score” value is reported as -0.216.
In the case of GTAGTCAC, the “PBM E-score” value is reported as -0.148.
ACTTCGAT was tested, and the “PBM E-score” value was -0.116.
With CGCTACTC the “PBM E-score” value was 0.116.
For AAGGGGTG, the “PBM E-score” value was -0.21.
With GCCTGCAA the “PBM E-score” value was -0.162.
For AGTGTAGC, the “PBM E-score” value was -0.058.
GATCTGCC was tested, and the “PBM E-score” value was 0.0547.
With AAAGAATC the “PBM E-score” value was -0.0972.
With CCGTTCCC the “PBM E-score” value was 0.169.
For ACAGCAAT, the “PBM E-score” value was -0.00923.
GAGCAGCA was tested, and the “PBM E-score” value was 0.0351.
With ATACGATC the “PBM E-score” value was -0.0267.
GCGTAGCA was tested, and the “PBM E-score” value was -0.0336.
For TAACCCTA, the “PBM E-score” value was -0.34.
In the case of ACCGCCGT, the “PBM E-score” value is reported as 0.241.
TAGTTTAA was tested, and the “PBM E-score” value was -0.149.
With CATGCATG the “PBM E-score” value was -0.202.
For AGTGGCCA, the “PBM E-score” value was -0.214.
In the case of AACTCATT, the “PBM E-score” value is reported as 0.0884.
For CTAAGTAG, the “PBM E-score” value was -0.222.
AGTACCGG was tested, and the “PBM E-score” value was 0.35.
For AGAATACC, the “PBM E-score” value was 0.0273.
For GACCGGGC, the “PBM E-score” value was 0.214.
For CGAGACTC, the “PBM E-score” value was 0.0377.
In the case of GAGGTCGC, the “PBM E-score” value is reported as 0.0413.
For AATTACCA, the “PBM E-score” value was -0.0424.
For GCCCATAA, the “PBM E-score” value was 0.0656.
For CGCTTACA, the “PBM E-score” value was -0.112.
CTAACCTA was tested, and the “PBM E-score” value was -0.0668.
GAATCGAC was tested, and the “PBM E-score” value was 0.205.
For GAGACTGA, the “PBM E-score” value was -0.0208.
With CTGTAGCC the “PBM E-score” value was -0.204.
For GGGCAGGA, the “PBM E-score” value was -0.176.
With AAGCTTCC the “PBM E-score” value was -0.0978.
ATTATGTC was tested, and the “PBM E-score” value was -0.243.
With GCTCACCA the “PBM E-score” value was -0.236.
In the case of TGTAGCAA, the “PBM E-score” value is reported as 0.0848.
For GCTCCCCA, the “PBM E-score” value was -0.302.
With CTTGGGCA the “PBM E-score” value was -0.0334.
In the case of ACCCTGCA, the “PBM E-score” value is reported as 0.00052.
CAACATGG was tested, and the “PBM E-score” value was -0.171.
ATGGCACG was tested, and the “PBM E-score” value was 0.0729.
AACGATTA was tested, and the “PBM E-score” value was -0.0984.
ATCGGCGA was tested, and the “PBM E-score” value was 0.327.
For ATACGTAT, the “PBM E-score” value was 0.0699.
With ATAGATTC the “PBM E-score” value was -0.177.
GGGACGTA was tested, and the “PBM E-score” value was 0.00257.
In the case of AAAAGTGT, the “PBM E-score” value is reported as -0.113.
For ATTTTACG, the “PBM E-score” value was 0.0886.
For CGAATGAG, the “PBM E-score” value was 0.0748.
ACTGACAT was tested, and the “PBM E-score” value was -0.183.
CCTCTAAC was tested, and the “PBM E-score” value was -0.103.
In the case of GGCTAAAA, the “PBM E-score” value is reported as -0.0862.
AGACGAGA was tested, and the “PBM E-score” value was -0.181.
ATAGATCC was tested, and the “PBM E-score” value was 0.119.
TAATAACA was tested, and the “PBM E-score” value was -0.0361.
In the case of GCCATGTA, the “PBM E-score” value is reported as -0.0791.
ACGATCCA was tested, and the “PBM E-score” value was -0.00831.
In the case of CAGTAATC, the “PBM E-score” value is reported as -0.112.
In the case of AGACAAAG, the “PBM E-score” value is reported as -0.172.
AACTTTAT was tested, and the “PBM E-score” value was 0.00199.
CCACTCCG was tested, and the “PBM E-score” value was 0.437.
In the case of GTATTGGA, the “PBM E-score” value is reported as -0.0601.
For AAGGTTGG, the “PBM E-score” value was -0.12.
In the case of GATTGAGA, the “PBM E-score” value is reported as 0.0599.
For CTTAGTCA, the “PBM E-score” value was -0.184.
